For 25 compounds, T/C results are on record in PubChem BioAssay AID330 (DTP/NCI, 2004).

Toxic doses and inconclusive results are not listed. Not every entry of the source has a single result; some have several. This list holds those alone. The source may hold further records. The values listed for one entry repeat one measurement (runs, samples, wells, individuals or studies). What stands in brackets tells the records apart. The letters are not those of the source and start again with each entry.

The experiment deals with P388 leukemia ip, CD2F1 mice, survival T/C. Nature of the experiment: NCI In Vivo Anticancer Drug Screen. Data for tumor model P388 Leukemia (intraperitoneal) in CD2F1 (CDF1) mice. Particulars: endpoint: median survival time, higher = longer survival.
The mark [1] stands for this setting: dose: 6.25 mg/kg/injection, schedule: Q01DX009 (ip), vehicle: saline.

With `CC1=CC(=Nc2ccc(N(CCCl)CCCl)cc2)C=C(C)C1=O`, the T/C (dose: 6.25 mg/kg/injection, schedule: Q01DX009 (ip), vehicle: Klucel (hydroxypropylcellulose) (HPC)) was 101 % of control and 157 % of control.

Consider `Nc1ncn(C2OC(CO)C(O)C2O)c(=O)n1` (stereo not drawn), for which the T/C reads like this: under setting [1], 175 % of control [sample A] and 87 % of control [sample B]; (dose: 73.0 mg/kg/injection, schedule: Q01DX001 (ip), vehicle: saline) 99 % of control and 168 % of control.

Turning to `COc1cc2oc3c(C)c(=O)cc4oc(-c5ccccc5)cc(c2c2c1CCC(c1ccccc1)O2)c43` (stereo not drawn), the T/C (dose: 1.75 mg/kg/injection, schedule: Q01DX005 (ip), vehicle: Klucel (hydroxypropylcellulose) (HPC)) is 98 % of control and 171 % of control; the T/C (dose: 3.5 mg/kg/injection, schedule: Q01DX005 (ip), vehicle: Klucel (hydroxypropylcellulose) (HPC)) is 92 % of control and 182 % of control.

Turning to `O=C(O)[C@@H](NC(=O)C(Cl)(Cl)Cl)[C@@H]1CC(Br)=NO1`, where the note is “dose: 60.0 mg/kg/injection, schedule: Q01DX005 (ip), vehicle: distilled water + Tween-80”, the T/C is 115 % of control and 151 % of control.

With `Nc1n[n+](-c2ccc(Cl)cc2)no1`, the T/C (dose: 50.0 mg/kg/injection, schedule: Q01DX009 (ip), vehicle: water) was 88 % of control and 151 % of control.

For `C=C1C(=O)OC2C1CC(O)/C(C)=C\CCC1(C)OC21` (stereo not drawn), the T/C (dose: 80.0 mg/kg/injection, schedule: Q01DX009 (ip), vehicle: distilled water + Tween-80 + alcohol) was 123 % of control and 150 % of control.

For the compound `CS(=O)(=O)OCC#CCOS(C)(=O)=O`, the T/C (dose: 25.0 mg/kg/injection, schedule: Q01DX009 (ip), vehicle: Klucel (hydroxypropylcellulose) (HPC)) was 121 % of control and 172 % of control.

As for `CC[C@]1(O)C[C@H]2CN(CCc3c([nH]c4ccccc34)[C@@](C(=O)OC)(c3cc4c(cc3OC)N(C=O)[C@H]3[C@@](O)(C(=O)OC)[C@H](OC(C)=O)[C@]5(CC)C=CCN6CC[C@]43[C@@H]65)C2)C1`, the T/C is 111 % of control and 160 % of control (dose: 0.05 mg/kg/injection, schedule: Q01DX009 (ip), vehicle: saline); 119 % of control and 178 % of control (dose: 0.1 mg/kg/injection, schedule: Q01DX009 (ip), vehicle: saline); 110 % of control, 165 % of control, 179 % of control (dose: 0.4 mg/kg/injection, schedule: Q04DX003 (ip), vehicle: water); 115 % of control and 184 % of control (dose: 1.6 mg/kg/injection, schedule: Q04DX003 (ip), vehicle: water).

As to `O=NNc1ccccn1`, the T/C (dose: 25.0 mg/kg/injection, schedule: Q01DX005 (ip), vehicle: water) is 100 % of control and 156 % of control.

As for `CC(=O)c1cc(C)oc1C`, for the setting “dose: 200.0 mg/kg/injection, schedule: Q01DX009 (ip), vehicle: saline”, the T/C was 106 % of control and 173 % of control.

`CNC(=O)OCc1c(COC(=O)NC)c(-c2ccc(Cl)cc2)n(C)c1C`: the T/C (dose: 25.0 mg/kg/injection, schedule: Q01DX009 (ip), vehicle: distilled water + Tween-80) is 88 % of control and 165 % of control.

Regarding `COc1cccc2c1C(=O)c1c(O)c3c(c(O)c1C2=O)CC(O)(C(=O)COc1ccccc1)CC3OC1CC(NC(=O)C(F)(F)F)C(O)C(C)O1` (stereo not drawn), the T/C (dose: 6.25 mg/kg/injection, schedule: Q01DX009 (ip), vehicle: other) was 110 % of control and 157 % of control.

On to `COc1cc2c[n+](C)c3c4cc5c(cc4ccc3c2cc1OC)OCO5`, for which the T/C (dose: 12.5 mg/kg/injection, schedule: Q01DX009 (ip), vehicle: water) was 105 % of control and 150 % of control.

For `C[NH-].C[NH-].[Cl][Pt+2][Cl]`, the T/C under setting [1] is 113 % of control and 160 % of control.

Take `COc1cccc2c1C(=O)c1c(O)c3c(c(O)c1C2=O)C[C@@](O)(C(C)=O)C[C@@H]3OC1CC(N=CCCCC=NC2CC(O[C@H]3C[C@](O)(C(C)=O)Cc4c(O)c5c(c(O)c43)C(=O)c3c(OC)cccc3C5=O)OC(C)C2O)C(O)C(C)O1` (stereo partly drawn): the T/C by setting is: (dose: 4.0 mg/kg/injection, schedule: Q04DX003 (ip), vehicle: distilled water + Tween-80) 115 % of control and 150 % of control; (dose: 8.0 mg/kg/injection, schedule: Q04DX003 (ip), vehicle: distilled water + Tween-80) 123 % of control and 159 % of control.

Take `Cc1nnc(C)s1`: the T/C (dose: 400.0 mg/kg/injection, schedule: Q01DX009 (ip), vehicle: Klucel (hydroxypropylcellulose) (HPC)) is on record as 104 % of control, 108 % of control, 151 % of control.

Regarding `COc1cc(NS(C)(=O)=O)ccc1Nc1c2ccccc2nc2ccccc12`, under “dose: 0.5 mg/kg/injection, schedule: Q01DX009 (ip), vehicle: other”, the T/C was 110 % of control and 150 % of control.

With `c1cc(-c2cc3ccc(C4=NCCN4)cc3[nH]2)ccc1C1=NCCN1`, the T/C (dose: 25.0 mg/kg/injection, schedule: Q04DX003 (ip), vehicle: saline) is 124 % of control and 154 % of control; the T/C (dose: 100.0 mg/kg/injection, schedule: Q04DX003 (ip), vehicle: saline) was 96 % of control and 189 % of control.

Consider `CNC(=O)N(C)C(C)=O`, for which the T/C (dose: 400.0 mg/kg/injection, schedule: Q04DX003 (ip), vehicle: saline) was 91 % of control and 177 % of control.

`COc1cccc2c1C(=O)c1c(O)c3c(c(O)c1C2=O)C[C@@](O)(C(=O)COC(=O)Cc1ccccc1)C[C@@H]3OC1CC(N)C(O)C(C)O1` (stereo partly drawn): the T/C (dose: 4.0 mg/kg/injection, schedule: Q01DX009 (ip), vehicle: saline with Tween-80) is 117 % of control and 166 % of control.

Regarding `C[N+](C)=c1ccc2nc3ccc(N)cc3sc-2c1`, the T/C (dose: 12.5 mg/kg/injection, schedule: Q01DX009 (ip), vehicle: saline with Tween-80) is 93 % of control and 193 % of control.

In the case of `COc1cc2cc(c1Cl)N(C)C(=O)CC(OC(=O)C(C)NC(=O)C(C)C)C1(C)OC1C(C)C1CC(O)(NC(=O)O1)C(OC)/C=C/C=C(C)C2OC` (stereo not drawn), the T/C by setting is: (dose: 8.0 micrograms/kg/injection, schedule: Q01DX009 (ip), vehicle: distilled water + alcohol) 114 % of control and 159 % of control; (dose: 16.0 micrograms/kg/injection, schedule: Q01DX009 (ip), vehicle: distilled water + alcohol) 117 % of control and 159 % of control.

For `CC[C@@]1(O)C[C@H]2CN(CCc3c([nH]c4ccccc34)[C@@](C(=O)OC)(c3cc4c(cc3OC)N[C@H]3[C@@](O)(C(=O)OC)[C@H](OC(C)=O)[C@]5(CC)C=CCN6CC[C@]43[C@@H]65)C2)C1`, the T/C (dose: 8.0 mg/kg/injection, schedule: Q01DX001 (ip), vehicle: water) is 121 % of control and 150 % of control.

Turning to `N#Cc1cn(C2OC(CO)C(O)C2O)c2ncnc(N)c12` (stereo not drawn), the T/C (dose: 0.3 mg/kg/injection, schedule: Q04DX003 (ip), vehicle: other) is 95 % of control and 165 % of control.

On to `CN(CC(N)=O)C(=O)N(CCCl)N=O`, for which the T/C (dose: 120.0 mg/kg/injection, schedule: Q01DX005 (ip), vehicle: saline with Tween-80) is 117 % of control and 175 % of control.
